Reference: PubChem BioAssay AID504339 (National Center for Advancing Translational Sciences (NCATS), 2011)
“And” between values parts separate entries of the source, which are not always exact repeats. Identical values can stand only once. Among all 390,000 compounds or so, about 17,000 (4.4%) were called active. This list was built around the results that the source calls inconclusive (neither active nor inactive); the mix of calls is not that of the screen. The call rests on the fitted dose curve; in most records, active means well fitted inhibition curve with a large enough effect; inconclusive means small, poorly fitted or top-dose-only effect; inactive means no such curve, though single readings can be large or run the other way. Potencies of inconclusive entries are doubtful fits and often do not repeat.

Each molecule was assayed against Lysine-specific demethylase 4A (Homo sapiens) (UniProt O75164) (assay: qHTS Assay for Inhibitors of JMJD2A-Tudor Domain). Details: AlphaScreen JMJD2A-Tudor / H3K4me3 peptide binding; series mostly up to 114 µM.
Sequence of UniProt O75164 (O75164 whole entry, looked up, the tested form may be a part): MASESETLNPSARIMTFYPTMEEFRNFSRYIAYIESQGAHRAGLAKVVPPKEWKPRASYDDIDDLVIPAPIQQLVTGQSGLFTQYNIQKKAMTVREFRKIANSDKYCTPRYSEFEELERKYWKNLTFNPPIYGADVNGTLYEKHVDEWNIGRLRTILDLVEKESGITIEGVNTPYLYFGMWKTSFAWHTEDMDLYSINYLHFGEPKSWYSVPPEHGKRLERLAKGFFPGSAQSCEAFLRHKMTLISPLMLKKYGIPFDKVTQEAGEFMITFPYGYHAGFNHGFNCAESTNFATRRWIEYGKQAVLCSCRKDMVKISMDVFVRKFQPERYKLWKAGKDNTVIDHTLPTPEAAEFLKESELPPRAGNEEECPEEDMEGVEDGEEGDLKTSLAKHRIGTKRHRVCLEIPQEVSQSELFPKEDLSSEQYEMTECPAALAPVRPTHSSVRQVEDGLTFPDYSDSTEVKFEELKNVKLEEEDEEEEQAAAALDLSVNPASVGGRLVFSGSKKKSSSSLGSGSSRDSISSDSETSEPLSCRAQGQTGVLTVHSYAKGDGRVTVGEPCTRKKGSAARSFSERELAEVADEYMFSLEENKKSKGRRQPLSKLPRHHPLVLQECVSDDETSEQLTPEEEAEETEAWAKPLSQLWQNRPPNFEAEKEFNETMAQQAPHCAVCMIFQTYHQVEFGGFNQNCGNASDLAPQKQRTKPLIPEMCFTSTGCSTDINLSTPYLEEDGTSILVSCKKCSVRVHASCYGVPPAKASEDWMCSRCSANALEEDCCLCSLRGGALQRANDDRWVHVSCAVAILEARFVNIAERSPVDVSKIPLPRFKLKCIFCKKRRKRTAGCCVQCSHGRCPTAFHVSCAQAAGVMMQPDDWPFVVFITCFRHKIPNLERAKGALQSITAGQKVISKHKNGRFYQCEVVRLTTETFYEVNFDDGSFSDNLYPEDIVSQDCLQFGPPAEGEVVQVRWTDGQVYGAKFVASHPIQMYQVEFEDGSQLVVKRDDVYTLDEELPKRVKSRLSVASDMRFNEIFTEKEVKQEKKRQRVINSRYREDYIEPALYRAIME
Further: nearly all actives have a fitted effect of over 50% in size.
Potency means the concentration at half of the fitted maximal effect; tags describe the fitted curve by direction and shape.

| Structure (SMILES) | Potency |
| --- | --- |
| Cc1cc(OCCN2CCOCC2)ccc1C(C)C | active: 14.1 µM |
| Cc1ccc(CN2CCSc3ccc(C(=O)NCCCN4CCOCC4)cc32)cc1 | inconclusive: 89.1 µM [inhibitor, partial curve] |
| COc1ccc(/C=C\c2cc(OC)c(OC)cc2CC[N+](C)(C)C)cc1OC | inactive |
| CNC(=S)N(CCc1c(C)[nH]c2ccccc12)Cc1cccnc1 | inactive |
| Cc1ccc(/C=C/C(=O)OCC(=O)N2CC(=O)Nc3ccccc32)o1 | active: 56.2 µM |
| O=C(Nc1nn[nH]n1)c1cccc(Oc2ccccc2)c1 | inconclusive: 79.4 µM [inhibitor, partial curve] |
| COC(=O)C1=CO[C@@H](C)[C@H]2CN3CCc4c([nH]c5ccccc45)[C@@H]3C[C@H]12 | inactive |
| CCOc1ccc(S(=O)(=O)N(CC(=O)N/N=C/c2ccc(-c3ccc([N+](=O)[O-])cc3)o2)c2ccccc2)cc1 | active: 28.2 µM |
| COc1cc2nc(Nc3ccc(C)c(C)c3)nc(N)c2cc1OC | inconclusive: 56.2 µM [inhibitor, partial curve] and inconclusive: 50.1 µM [inhibitor, partial curve] |
| O=C(CCN1CCOCC1)N1CCc2c([nH]c3ccccc23)C1c1cccc(Cl)c1 (stereo not given) | inconclusive: 56.2 µM [inhibitor, partial curve] |
| O=Nc1nc2ncccn2c1-c1ccccc1 | inconclusive: 8.91 µM [inhibitor, full curve, poor fit] |
| COc1cc2[nH]c(=S)nc(NCCc3ccc(C)cc3)c2cc1OC | inconclusive: 22.4 µM [inhibitor, partial curve] |
| O=c1oc2c(O)c(O)cc3c(=O)oc4c(O)c(O)cc1c4c23 | active: 0.708 µM |
| O=C(NCC1CCCO1)c1ccc(NS(=O)(=O)c2cccs2)cc1 (stereo not given) | inconclusive: 100 µM [inhibitor, single point] |
| O=C1C=C(c2ccc(C(=O)O)cc2)C[C@@H](c2ccc3c(c2)OCO3)C1 | active: 79.4 µM |
| O=[N+]([O-])c1ccc(CN2CCC(Cc3ccccc3)CC2)cc1 | active: 28.2 µM |
| Cc1cccc(OCCNc2cc(N3CCOCC3)ccc2[N+](=O)[O-])c1 | inconclusive: 22.4 µM [inhibitor, full curve] |
| CCOc1ccc(S(=O)(=O)Nc2cccc(C(=O)NCCCn3ccnc3)c2)cc1 | inactive |
| CCOc1cc(/C=C2\SC(=N)N(c3nonc3N)C2=O)ccc1OCC(N)=O | inconclusive: 63.1 µM [inhibitor, single point] |
| Cc1ccc(-c2cc(C(=O)N(C)CC(=O)Nc3ccccc3Br)c3ccccc3n2)o1 | inconclusive: 100 µM [inhibitor, single point] |
